Experimental data: the supplement of paper PMC6746778
The other results are listed elsewhere or left out. Most values come without repeats; read them as rough.

Tests used:
Experiment in all cases: proliferation Z-score within cell line (SRB, relative to all inhibitors screened on that line); triple-negative breast cancer lines and a kinase inhibitor library; SRB is the sulforhodamine B protein stain; higher = less growth inhibition (more resistant)
Conditions in all cases: concentration: 1 µM; 4 days
Bt20 = system: Bt20
Bt549 = system: Bt549
HCC1143 = system: HCC1143
HCC1806 = system: HCC1806
HCC1937 = system: HCC1937
HCC38 = system: HCC38
HCC70 = system: HCC70
Hs578T = system: Hs578T
MDA-MB-231 = system: MDA-MB-231
MDA-MB-435s = system: MDA-MB-435s
MDA-MB-436 = system: MDA-MB-436
MDA-MB-453 = system: MDA-MB-453
MDA-MB-468 = system: MDA-MB-468
SKBR7 = system: SKBR7
SUM1315MO2 = system: SUM1315MO2
SUM149PT = system: SUM149PT
SUM159PT = system: SUM159PT
SUM185PE = system: SUM185PE
SUM229PE = system: SUM229PE
SUM52PE = system: SUM52PE
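Note: Single-dose primary screen of a 378-member kinase inhibitor library in 96-well plates, with growth read as absorbance of protein-bound SRB dye after TCA fixation.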

Compound	proliferation Z-score within cell line (Bt20)	proliferation Z-score within cell line (Bt549)	proliferation Z-score within cell line (HCC1143)	proliferation Z-score within cell line (HCC1806)	proliferation Z-score within cell line (HCC1937)	proliferation Z-score within cell line (HCC38)	proliferation Z-score within cell line (HCC70)	proliferation Z-score within cell line (Hs578T)	proliferation Z-score within cell line (MDA-MB-231)	proliferation Z-score within cell line (MDA-MB-435s)	proliferation Z-score within cell line (MDA-MB-436)	proliferation Z-score within cell line (MDA-MB-453)	proliferation Z-score within cell line (MDA-MB-468)	proliferation Z-score within cell line (SKBR7)	proliferation Z-score within cell line (SUM1315MO2)	proliferation Z-score within cell line (SUM149PT)	proliferation Z-score within cell line (SUM159PT)	proliferation Z-score within cell line (SUM185PE)	proliferation Z-score within cell line (SUM229PE)	proliferation Z-score within cell line (SUM52PE)
CN(C)C/C=C/C(=O)Nc1cc2c(Nc3ccc(F)c(Cl)c3)ncnc2cc1O[C@H]1CCOC1 [Afatinib (BIBW2992)]	0.0496	0.396	-1.23	-2.02	-1.31	0.268	0.329	0.387	0.5	0.347	0.053	-1.39	-1.65	1	0.833	-0.643	0.213	1.2	-0.0253	0.728
Nc1nccc(Oc2ccc(NC(=O)c3c[nH]cc(-c4ccc(F)cc4)c3=O)cc2F)c1Cl	1.09	0.804	-0.109	1.02	-0.204	0.547	-1.75	0.503	0.76	0.65	-0.827	0.784	1.17	0.437	1.14	0.883	-0.157	1.13	1.14	1.1
CC(C)(C)c1nc(-c2cccc(NS(=O)(=O)c3c(F)cccc3F)c2F)c(-c2ccnc(N)n2)s1	0.492	0.0501	0.849	0.7	0.64	0.679	0.542	0.601	-0.0358	-1.45	-0.307	0.439	-0.0741	0.0634	-0.216	-0.166	0.628	0.384	1.5	-0.459
C[C@@H](Oc1cc(-n2cnc3ccc(CN4CCN(C)CC4)cc32)sc1C(N)=O)c1ccccc1C(F)(F)F	-2.05	-2.14	-2.2	-1.76	-1.49	-2.52	-2.13	-1.59	-1.93	-1.36	-2.31	-1.59	-1.77	-2.44	-1.56	-2.27	-3.74	-0.99	-0.269	-1.16
N#Cc1ccc2[nH]c(O)c(-c3ccc(CN4CCOCC4)cn3)c2c1	-0.00593	0.854	1.12	0.727	0.671	0.669	0.643	0.778	0.757	0.588	0.916	0.335	0.739	0.342	0.449	0.69	0.472	0.0279	-0.178	-0.272
COc1cc(Nc2ncc(F)c(Nc3ccc4c(n3)N(COP(=O)(O)O)C(=O)C(C)(C)O4)n2)cc(OC)c1OC [Fostamatinib (R788)]	0.16	0.117	-0.148	-0.726	0.66	-0.99	0.435	-0.125	-0.31	0.0694	0.701	0.596	0.0394	-0.57	-1.21	-0.431	0.294	-0.602	-0.0312	-1.18
COc1ccc(F)c(F)c1C(=O)c1cnc(NC2CCN(S(C)(=O)=O)CC2)nc1N	-0.365	-0.747	-0.776	-0.00414	0.302	0.174	-0.927	-0.311	-0.978	-0.66	-0.409	-0.749	-0.534	-1.18	0.0358	-0.297	-1.06	0.343	-0.1	-0.533
O=C1c2ccccc2-c2n[nH]c3cccc1c23	0.667	0.474	-0.648	0.523	-1.94	0.545	-1.89	0.626	0.771	0.727	-1.84	0.717	0.354	0.305	0.812	0.657	-1.15	0.301	0.475	0.875
COc1cc2ncnc(Nc3ccc(F)c(Cl)c3)c2cc1NC(=O)/C=C/CN1CCCCC1	-0.00668	0.768	-0.328	-1.03	-0.604	0.579	0.66	0.715	0.714	0.799	0.484	-0.654	-0.841	0.783	0.352	-0.215	0.682	0.504	-0.133	0.475
COc1cc(Nc2ncc3c(n2)-c2ccc(Cl)cc2C(c2c(F)cccc2OC)=NC3)ccc1C(=O)O [Alisertib (MLN8237)]	-0.769	-1.16	-0.684	0.295	-0.787	-1.01	-0.755	-1.07	-1.53	-0.536	-0.134	-1.03	-1.86	-1.09	-0.153	-0.358	0.31	0.174	-0.0983	-1.25
COc1cc(Nc2ncc(F)c(Nc3ccc4c(n3)NC(=O)C(C)(C)O4)n2)cc(OC)c1OC [R406 (free base)]	0.557	0.702	-2.23	0.645	-0.597	0.608	-0.48	0.807	0.552	0.497	-0.531	0.886	0.541	0.558	0.318	0.175	-0.252	0.532	0.386	0.798
C=CC(=O)Nc1cccc(Nc2nc(Nc3ccc(N4CCN(C(C)=O)CC4)cc3OC)ncc2C(F)(F)F)c1	0.488	0.285	0.149	-0.67	-0.109	0.481	0.511	0.396	0.39	0.129	0.396	-0.0726	-0.0398	0.786	0.0974	0.00208	0.49	-0.0263	-0.247	0.472
Cc1cnc(NC(=O)Nc2cc(Br)c(C)cc2OC[C@@H]2CNCCO2)cn1	0.417	0.531	-0.227	-1.5	0.00418	0.064	-1.11	0.422	0.937	0.594	-1.07	-0.0335	-0.0569	-0.3	-0.616	-0.121	-0.0996	-0.287	-0.451	0.733
